This is an account of results in ChEMBL document CHEMBL4888484, “Replenishing the malaria drug discovery pipeline: Screening and hit evaluation of the MMV Hit Generation Library 1 (HGL1) against asexual blood stage Plasmodium falciparum ,using a nano luciferase reporter read-out” (2022).

Molecules are shown by their SMILES. In all, about 150,000 compounds went through this assay and about 540 (0.36%) showed an effect of 50% or more. The list shows a part of the results.

In the experiment the test system is Plasmodium falciparum. Briefly: Primary screen in NF54 nanoGlo assay, in single point, at 2uM, 72h; a lower Z score goes with more inhibition. The conditions noted are these: timepoint 72 hour. The experiment is classed as functional, Erythrocyte.
As for `NC(=O)c1cnn(CCc2ccc(F)c(F)c2)c1`, the “% Inhibition” value amounted to 0% and the Z score came out at 0.03.

With `Cc1ccc(Cn2cc([C@H](CC(=O)NCc3ccncc3)c3cccc(OCc4ccccc4)c3)c3ccccc32)cc1`, the “% Inhibition” value was determined as 1% and the Z score was -0.11.

For the molecule `Cn1c([C@@H]2CNC(=O)C2)nnc1N1CCN(c2ccccc2)CC1`, the “% Inhibition” value is listed as -1% and the Z score turned out to be 0.11.

Consider `O=C1COC(=O)N1C1CCN(S(=O)(=O)c2ccc(Cl)s2)CC1`, for which the “% Inhibition” value came out at 10% and the Z score is given as -1.89.

For the molecule `CC(C)c1ccc(NC(=O)N2CCc3nc(N4CCCCC4)nc(Oc4ccc(F)cc4F)c3C2)cc1`, the “% Inhibition” value worked out at 9% and the Z score is -1.3.

For the molecule `CN(C)c1nccnc1N1CCc2c(c(C(N)=O)nn2C)C1`, the “% Inhibition” value was -4% and the Z score was 0.74.

With `COCC1(CNC(=O)N2CC(n3nc(C)cc3C)C2)CC1`, the “% Inhibition” value is listed as -17% and the Z score is listed as 1.79.

Regarding `O=C(COc1ccc(Cl)cc1)NC[C@H]1CN(C2CC2)CCO1`, the “% Inhibition” value was -1% and the Z score is recorded as 0.16.

As for `Cc1cc(C)cc(CN2C(=O)NC3(CC(O)C3)C2=O)c1` (stereo unspecified), the “% Inhibition” value was -9% and the Z score was 0.94.

Consider `CC(C)NC(=O)N(Cc1ccccc1)C[C@H]1CC(c2ccc(Cl)c(Cl)c2)=NO1`, for which the “% Inhibition” value is given as -6% and the Z score is listed as 0.5.

Turning to `C[C@@H](NC(=O)[C@@H]1C[C@H]1c1ccc(Cl)cc1)C(=O)N1Cc2ccccc2C1`, the “% Inhibition” value is -9% and the Z score came out at 1.24.

In the case of `Cc1ncc(-c2ccccc2)cc1NC(=O)c1nccnc1N`, the “% Inhibition” value was -1% and the Z score is 0.19.

Regarding `COc1ccc(CCNC(=O)C2CCN(c3nccn4nc5c(c34)CCCC5)CC2)cc1OC`, the “% Inhibition” value is reported as 41% and the Z score is given as -6.38.

Take `Nc1cc2c3c(cccc3c1)C(=O)OC2=O`: the “% Inhibition” value is given as -19% and the Z score was 2.51.

Take `COc1ccc(S(=O)(=O)N(CC(=O)NCc2cccnc2)C2CCCCC2)cc1OC`: the “% Inhibition” value came out at 39% and the Z score is -1.11.

Regarding `Cn1nc2c(c1CNc1nnc(-c3cccs3)o1)COCC2`, the “% Inhibition” value is reported as -6% and the Z score turned out to be 0.82.

In the case of `c1ccn2c(C3CCCCC3)ncc2c1`, the “% Inhibition” value was -9% and the Z score is given as 1.21.

Consider `CCOC(=O)N1CCc2c(nc(-c3ccc(C)cc3)n(CC(=O)Nc3ccc(C)c(Cl)c3)c2=O)C1`, for which the “% Inhibition” value stood at 4% and the Z score is -0.65.

`CCC(=O)N1CCC(NCc2ccc(C)o2)C(C)C1` (stereo unspecified): the “% Inhibition” value is reported as -6% and the Z score was 0.81.

On to `CCCC1(CCC)NC(=O)N(CC(=O)N2C(C)CCCC2C)C1=O` (stereo unspecified), for which the “% Inhibition” value was -16% and the Z score was determined as 3.26.

Turning to `O=S(=O)(Cc1ccccc1)NCC1(Cc2ccccc2)CC1`, the “% Inhibition” value is recorded as -5% and the Z score came out at 0.93.

Turning to `O=C1CCC2(CCN(C(=O)N[C@@H](Cc3ccccc3)c3ccccc3)CC2)N1`, the “% Inhibition” value is on record as -2% and the Z score is 0.45.

As for `COc1ccc(CN2CC=C(C)CC2)cc1Cn1cccn1`, the “% Inhibition” value is listed as -17% and the Z score is 1.46.

With `CC[C@H](NC(=O)Cc1ccc(O)cc1)C1CC(O)C1` (stereo partly specified), the “% Inhibition” value is reported as -11% and the Z score stood at 1.61.

`COc1ccccc1CNC(=O)[C@]1(C)Cn2cnc(C(=O)NCCN3CCCC3)c2C(=O)N1C1CC1`: the “% Inhibition” value is recorded as -27% and the Z score is given as 2.7.

Take `CCNC(=O)N1CC(C(=O)NCC2CC2)CCC1c1cccc(C)c1` (stereo unspecified): the “% Inhibition” value was -19% and the Z score was determined as 2.76.

For the molecule `Cn1nc(C(=O)N2C[C@@H]3NC(=O)c4ccc(Cl)c(c4)OCCCn4cc(nn4)CO[C@H]3C2)ccc1=O`, the “% Inhibition” value was -8% and the Z score was 1.45.

For `COc1ccc(N(CC(=O)N2CCNC2=O)C(C)C)cc1F`, the “% Inhibition” value is reported as -3% and the Z score turned out to be 0.6.

Consider `CCOC(=O)c1coc(N2CCN(c3ccc(OC)cc3)C[C@@H]2C)n1`, for which the “% Inhibition” value is on record as -11% and the Z score came out at 1.33.

Turning to `O=C(NCc1ccnc(N2CCCC2)n1)c1cccc(Cl)c1`, the “% Inhibition” value was -8% and the Z score worked out at 1.58.

For `COC[C@@H](O)CN(C)Cc1ccc(C#N)cc1Br`, the “% Inhibition” value is reported as -5% and the Z score is 0.4.

Take `O=C(c1ccccc1F)N1CCc2nc(N3CCCCC3)nc(Oc3ccc(F)c(F)c3)c2C1`: the “% Inhibition” value is -8% and the Z score came out at 0.8.

On to `CC1CC(C)(C)CCC1NC(=O)CCc1cscn1` (stereo unspecified), for which the “% Inhibition” value is recorded as -17% and the Z score is 1.85.

For the molecule `Cc1ccc(F)c(NS(=O)(=O)c2cc3n(c2)CCCN(C)C3=O)c1`, the “% Inhibition” value is reported as -11% and the Z score was found to be 1.33.

For `CN(C(=O)C1CC1c1ccc(F)c(F)c1)c1c(F)cccc1C(N)=O` (stereo unspecified), the “% Inhibition” value was -8% and the Z score is recorded as 1.33.

For `COc1cc(OC)nc(N2CC(=O)N[C@@H](C)C2)n1`, the “% Inhibition” value is -10% and the Z score worked out at 1.75.

With `C[C@@H](CCc1ccco1)Nc1nc(-c2ccc[nH]c2=O)cs1`, the “% Inhibition” value was 11% and the Z score is reported as -1.93.

With `Cc1ccc(C)c(Cc2noc(CN3CCNC(=O)C3)n2)c1`, the “% Inhibition” value amounted to 0% and the Z score came out at 0.04.

For `CCc1nc(N(CCOC)CCC(=O)NCc2ccccc2)c2cc(Cl)cc(Cl)c2n1`, the “% Inhibition” value is given as -4% and the Z score is 0.57.

Consider `CN(CCC(F)(F)F)C(=O)Nc1ccc(C(C)(C)C)nn1`, for which the “% Inhibition” value is -8% and the Z score was found to be 1.56.

`NC(=O)N1CCC[C@H]1C(=O)N1CCC(C2CCCC2)C1` (stereo partly specified): the “% Inhibition” value is -22% and the Z score was found to be 3.05.

For `CCOC(=O)c1cc2cccnc2nc1C`, the “% Inhibition” value is on record as -8% and the Z score is given as 0.99.

In the case of `Cc1cc(C)c(-n2cccn2)c([C@H]2NCCc3[nH]cnc32)c1`, the “% Inhibition” value is -9% and the Z score was 0.88.
